Experimental data taken from paper PMC5719402, “Protein-Structure Assisted Optimization of 4,5-Dihydroxypyrimidine-6-Carboxamide Inhibitors of Influenza Virus Endonuclease” (Scientific Reports, 2017).
pIC50: −log10 of the molar value.

System: influenza virus A/Puerto Rico/8/34 (H1N1)
Test: microbe, parasite or virus in culture
Type: cell-based
Conditions: for pIC50: H1N1, MDCK, read-out: Plaque inhibition IC50

Compound | pIC50 | Inhibition of wild type virus growth in plaque inhibition assay
O=C(NC1Cc2ccccc2C1)c1nc([C@@H]2CCCN2C(=O)CSc2ccccc2Cl)[nH]c(=O)c1O [Compound 10i] | 4.74 | 
O=C(NCCS(=O)(=O)c1ccccc1)c1nc([C@@H]2CCCN2C(=O)c2c(Cl)cncc2Cl)[nH]c(=O)c1O [Compound 8e] | < 4.00 | no effect
O=C(NCCc1ccccc1)c1nc([C@@H]2CCCN2C(=O)c2c(Cl)cccc2Cl)[nH]c(=O)c1O [Compound 7a] | 4.63 | 
O=C(NCCS(=O)(=O)c1ccccc1)c1nc([C@@H]2CCCN2C(=O)CSc2ccccc2Cl)[nH]c(=O)c1O [Compound 10e] | 4.89 | 
COc1cc2c(cc1OC)CC(NC(=O)c1nc([C@@H]3CCCN3C(=O)CSc3ccccc3Cl)[nH]c(=O)c1O)C2 [Compound 10j] | 5.15 | 
O=C(NCC1Cc2ccccc2O1)c1nc([C@@H]2CCCN2C(=O)CSc2ccccc2Cl)[nH]c(=O)c1O (stereo partly shown) [Compound 10k] | 4.92 | 
O=C(NCCc1ccccc1)c1nc([C@@H]2CCCN2C(=O)c2c(Cl)cncc2Cl)[nH]c(=O)c1O [Compound 7c] | 4.73 | 
O=C(NC1Cc2ccccc2C1)c1nc([C@@H]2CCCN2C(=O)c2c(Cl)cncc2Cl)[nH]c(=O)c1O [Compound 8f] | 4.81 | 
O=C(NCCOc1ccccc1)c1nc([C@@H]2CCCN2C(=O)COc2ccccc2Cl)[nH]c(=O)c1O [Compound 9f] | 4.42 | 
